We go through 115 sequences from the BET-seq Pho4 binding data (Le et al. 2018).

The list shows a part of the results. Values were computed here from the reads of four pooled replicates and scatter widely.

The assay has as its target T1, Pho4 (S. cerevisiae) (UniProt P07270).
T1 sequence: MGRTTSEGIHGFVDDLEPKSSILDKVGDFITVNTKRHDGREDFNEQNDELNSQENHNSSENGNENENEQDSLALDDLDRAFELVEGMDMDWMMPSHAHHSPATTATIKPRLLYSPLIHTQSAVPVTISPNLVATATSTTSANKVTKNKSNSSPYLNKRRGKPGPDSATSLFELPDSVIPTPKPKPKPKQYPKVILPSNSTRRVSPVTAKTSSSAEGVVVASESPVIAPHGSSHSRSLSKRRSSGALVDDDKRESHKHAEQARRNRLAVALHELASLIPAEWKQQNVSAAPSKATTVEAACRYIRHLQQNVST
As to the kind of experiment: relative binding free energy (BET-seq); higher = weaker binding. The following applies: reference: library average.
Take GTTTTCACGTGTAGGG: the “relative binding free energy” value is 0.26 kcal/mol. Regarding GGTGTCACGTGAGAAG, the “relative binding free energy” value was determined as 0.23 kcal/mol. Take GATGTCACGTGAGTGA: the “relative binding free energy” value was 0.13 kcal/mol. GGGCACACGTGTGGTT: the “relative binding free energy” value was determined as 0.04 kcal/mol. Then GACGGCACGTGTTAGT, with -0.04 kcal/mol; and ATGGTCACGTGCTGCG, with 0.12 kcal/mol; and GTTCGCACGTGGTTTA, with -0.06 kcal/mol. As for CATATCACGTGGGTGG, the “relative binding free energy” value was -0.09 kcal/mol. Take TTTTTCACGTGTTTAC: the “relative binding free energy” value was 0.27 kcal/mol. For the sequence TACATCACGTGAGTGT, the “relative binding free energy” value was found to be 0.33 kcal/mol. Take GAAGTCACGTGTTTGG: the “relative binding free energy” value was 0.22 kcal/mol. TTATGCACGTGAGAAA: the “relative binding free energy” value is 0.31 kcal/mol.

For GTTGTCACGTGATTGA, the “relative binding free energy” value stood at 0.14 kcal/mol. Turning to GGGTGCACGTGGAGTG, the “relative binding free energy” value is -0.01 kcal/mol.

For the sequence TTGTTCACGTGGTTTA, the “relative binding free energy” value is 0.3 kcal/mol. For the sequence TCGATCACGTGGGCGG, the “relative binding free energy” value worked out at 0.14 kcal/mol. Take CGTGACACGTGGGTTA: the “relative binding free energy” value was -0.17 kcal/mol. On to AAGGACACGTGAGGTA, for which the “relative binding free energy” value worked out at 0.22 kcal/mol. For the sequence TGGATCACGTGGCGGA, the “relative binding free energy” value is 0.21 kcal/mol.

Turning to GTTTACACGTGTGATT, the “relative binding free energy” value came to 0.34 kcal/mol.

On to TAGATCACGTGTGTCG, for which the “relative binding free energy” value was found to be 0.19 kcal/mol. On to TGTGTCACGTGACATT, for which the “relative binding free energy” value came out at 0.29 kcal/mol. Turning to CCGGTCACGTGAGGTG, the “relative binding free energy” value stood at 0.29 kcal/mol.

In the case of GTGGGCACGTGGTCTT, the “relative binding free energy” value is -0.06 kcal/mol.

CGTCTCACGTGTGTAG: the “relative binding free energy” value was found to be 0.33 kcal/mol. For GGGGTCACGTGAGTAT, the “relative binding free energy” value worked out at 0.43 kcal/mol. With CGTGTCACGTGATATG, the “relative binding free energy” value turned out to be 0.16 kcal/mol. Then TGAATCACGTGTTGTA, with 0.22 kcal/mol. Take TAGTACACGTGTTAGT: the “relative binding free energy” value was 0.09 kcal/mol.

Regarding ATTTGCACGTGAAATG, the “relative binding free energy” value amounted to 0.3 kcal/mol. Then GATTACACGTGCTGGG, with 0.12 kcal/mol. On to GGAATCACGTGGTGAG, for which the “relative binding free energy” value amounted to 0.17 kcal/mol.

Turning to CGGTTCACGTGTGAGG, the “relative binding free energy” value was determined as 0.34 kcal/mol. Regarding ACGTGCACGTGTTTTG, the “relative binding free energy” value is -0.14 kcal/mol. As to AATGGCACGTGAGCTG, the “relative binding free energy” value came to 0.2 kcal/mol.

On to GGAAGCACGTGTAAGG, for which the “relative binding free energy” value was 0.02 kcal/mol. For ATAATCACGTGGTTAG the value was 0.04 kcal/mol; for AATGTCACGTGAGGAA, 0.23 kcal/mol; for ACTTGCACGTGTAGTT, -0.02 kcal/mol. Then GGCGTCACGTGGAGCG, with -0.06 kcal/mol; and TTCTACACGTGCGGTT, with 0.22 kcal/mol. Take TTGCACACGTGTGGAT: the “relative binding free energy” value came out at 0 kcal/mol.

For the sequence TTGTTCACGTGATTAG, the “relative binding free energy” value stood at 0.31 kcal/mol. Consider AAGTGCACGTGTCGGT, for which the “relative binding free energy” value was -0.02 kcal/mol. AAAATCACGTGATTGG: the “relative binding free energy” value amounted to 0.35 kcal/mol.

For TGTGCCACGTGCAGGG, the “relative binding free energy” value is -0.26 kcal/mol.

On to GTCAGCACGTGGGGAG, for which the “relative binding free energy” value is -0.11 kcal/mol.

Consider TTTGCCACGTGGGCTA, for which the “relative binding free energy” value is -0.24 kcal/mol. As for GGGTGCACGTGGAACG, the “relative binding free energy” value was -0.01 kcal/mol. Turning to GGTTTCACGTGGCGCT, the “relative binding free energy” value came to 0.2 kcal/mol. For TGCTTCACGTGGCGTT, the “relative binding free energy” value came to 0.23 kcal/mol.

As for ATTTGCACGTGTAGAA, the “relative binding free energy” value is -0.04 kcal/mol. For GTGGGCACGTGCGGGG the value was -0.1 kcal/mol; for TCTTACACGTGTTTGG, 0.13 kcal/mol; for AAGGACACGTGGGCGC, 0.05 kcal/mol.

Consider TGACGCACGTGTGGGG, for which the “relative binding free energy” value is -0.21 kcal/mol. As for TAGTGCACGTGCGTGC, the “relative binding free energy” value is -0.12 kcal/mol.

For the sequence TAGGGCACGTGTATGA, the “relative binding free energy” value was -0.07 kcal/mol. On to CTTGACACGTGAGGGG, for which the “relative binding free energy” value was determined as 0.23 kcal/mol. With AGGAGCACGTGTAGTG, the “relative binding free energy” value is -0.03 kcal/mol.

With TTAATCACGTGCTTGG, the “relative binding free energy” value is -0.01 kcal/mol. On to ATTAACACGTGTAATG, for which the “relative binding free energy” value was 0.05 kcal/mol. For TTGCGCACGTGCTTGG, the “relative binding free energy” value was -0.18 kcal/mol. Take TGTCTCACGTGTTTGC: the “relative binding free energy” value turned out to be 0.15 kcal/mol. Turning to TCGGCCACGTGAGGGT, the “relative binding free energy” value is 0.11 kcal/mol. On to TATACCACGTGTGGGG, for which the “relative binding free energy” value is 0.09 kcal/mol. Regarding GTGAACACGTGTGGAG, the “relative binding free energy” value is 0.17 kcal/mol. Take TTAGGCACGTGAATAA: the “relative binding free energy” value stood at 0.12 kcal/mol. With GGTGTCACGTGTTAGT, the “relative binding free energy” value was determined as 0.13 kcal/mol.

Regarding GGTGGCACGTGAGTGG, the “relative binding free energy” value is 0.25 kcal/mol. GATGGCACGTGAGAAT: the “relative binding free energy” value was 0.16 kcal/mol. Then TGATACACGTGGATGG, with -0.02 kcal/mol; and TATGTCACGTGTATTG, with 0.01 kcal/mol. On to CGTGGCACGTGATGAG, for which the “relative binding free energy” value is -0.02 kcal/mol.

For the sequence TTTTACACGTGTGCGA, the “relative binding free energy” value was 0.11 kcal/mol.

Turning to CGTTTCACGTGGGGGA, the “relative binding free energy” value turned out to be 0.24 kcal/mol. On to TTAGGCACGTGCTGCT, for which the “relative binding free energy” value was -0.26 kcal/mol. As to TAAGACACGTGAGAGG, the “relative binding free energy” value came to 0.19 kcal/mol. In the case of GTGAACACGTGGTGTT, the “relative binding free energy” value was 0.04 kcal/mol. Then AGATGCACGTGCAGTT, with 0 kcal/mol; and GTTGTCACGTGACGGA, with 0.02 kcal/mol; and TTTGACACGTGAGTTA, with 0.16 kcal/mol. Take ACGATCACGTGGGAGG: the “relative binding free energy” value stood at 0.04 kcal/mol.

In the case of GTGTACACGTGTGTTT, the “relative binding free energy” value came to 0.12 kcal/mol. For TAGTGCACGTGCGATG the value was -0.15 kcal/mol; for TTTAACACGTGGGTTA, -0.06 kcal/mol; for AAGAACACGTGATGGG, 0.07 kcal/mol. GTGGGCACGTGCCGGA: the “relative binding free energy” value is -0.28 kcal/mol. As for TATTTCACGTGAGTAT, the “relative binding free energy” value was 0.39 kcal/mol. As to AAAGTCACGTGAAGGT, the “relative binding free energy” value is 0.13 kcal/mol. CGTGTCACGTGTGCGG: the “relative binding free energy” value was 0.12 kcal/mol. For AGGTGCACGTGTCTGA, the “relative binding free energy” value is -0.07 kcal/mol.

Take ACCGTCACGTGTGGGG: the “relative binding free energy” value is -0.01 kcal/mol. ATCATCACGTGTTCTG: the “relative binding free energy” value amounted to 0.27 kcal/mol. Regarding CGTCGCACGTGGAGTG, the “relative binding free energy” value is -0.08 kcal/mol. For GGTCACACGTGCAGGG the value was 0 kcal/mol. In the case of TGTAGCACGTGGCGGC, the “relative binding free energy” value is -0.17 kcal/mol. For CAGGTCACGTGTGTGA, the “relative binding free energy” value is 0.24 kcal/mol. For TGACTCACGTGATGGT, the “relative binding free energy” value worked out at 0.18 kcal/mol. For AGGGTCACGTGCTGTA, the “relative binding free energy” value is -0.06 kcal/mol. In the case of GGTGTCACGTGTCTCT, the “relative binding free energy” value is 0.12 kcal/mol. For the sequence TAGTGCACGTGACTGG, the “relative binding free energy” value is 0.08 kcal/mol. Consider AGGTTCACGTGGGTTA, for which the “relative binding free energy” value was found to be 0.22 kcal/mol.

In the case of GGAGGCACGTGTGGCC, the “relative binding free energy” value is -0.14 kcal/mol. Then CTGGTCACGTGTGTTG, with 0.06 kcal/mol; and TTGATCACGTGGGAAG, with 0.14 kcal/mol. For the sequence CAAGGCACGTGGGAGT, the “relative binding free energy” value is -0.18 kcal/mol. On to TAATACACGTGAAGTT, for which the “relative binding free energy” value came to 0.31 kcal/mol. In the case of TCGTGCACGTGATTGA, the “relative binding free energy” value is 0.24 kcal/mol. TTTGTCACGTGCAGGA: the “relative binding free energy” value is 0.2 kcal/mol. Turning to GGATTCACGTGCTGAG, the “relative binding free energy” value was 0.3 kcal/mol.

Regarding AAAGGCACGTGCGAGT, the “relative binding free energy” value was -0.08 kcal/mol.

Take AAGTGCACGTGCGGCT: the “relative binding free energy” value is -0.12 kcal/mol. For TTTGACACGTGATTTG the value was 0.24 kcal/mol.

Regarding CGGTTCACGTGGACTG, the “relative binding free energy” value amounted to 0.33 kcal/mol.
